# Measured values reported in PubChem BioAssay AID1745853 (National Center for Advancing Translational Sciences (NCATS), 2022).
# Where “and” joins values, the source holds several entries; their conditions need not be identical. Equal values may be shown once. Some of the results follow. These are further read-outs of the screen, such as a control signal, another cell line or another target. No call is given for them.
# Columns and labels:
# Test in all cases: Primary Screen for Target Class Profiling of Small Molecule Inhibitors of Methyltransferases
# [1] = target: Glycine N-methyltransferase (Homo sapiens) (UniProt Q14749); details: purified enzyme, MTase-Glo SAH luminescence; measured here: GNMT inhibition; at 40 µM; stronger effect = lower value
# How it was run: (§1)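 Each enzyme was assayed with SAM and its substrate. SAH formation detected by MTase-Glo luminescence; single-point 40 uM screen[…].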
# [2] = target: Guanidinoacetate N-methyltransferase (Homo sapiens) (UniProt Q14353); details: purified enzyme, MTase-Glo SAH luminescence; measured here: GAMT inhibition; at 40 µM; stronger effect = lower value
# How it was run: as §1
# [3] = target: Histamine N-methyltransferase (Homo sapiens) (UniProt P50135); details: purified enzyme, MTase-Glo SAH luminescence; measured here: HNMT inhibition; at 40 µM; stronger effect = lower value
# How it was run: as §1
# [4] = target: Nicotinamide N-methyltransferase (Homo sapiens) (UniProt P40261); details: purified enzyme, MTase-Glo SAH luminescence; measured here: NNMT inhibition; at 40 µM; stronger effect = lower value
# How it was run: as §1
# [5] = target: Phenylethanolamine N-methyltransferase (Homo sapiens) (UniProt P11086); details: purified enzyme, MTase-Glo SAH luminescence; measured here: PNMT inhibition; at 40 µM; stronger effect = lower value
# How it was run: as §1
# On the % scale 0 is the no-effect control and ±100 the full control effect.
Structure (SMILES),"activity change, negative = inhibition [1]","activity change, negative = inhibition [2]","activity change, negative = inhibition [3]","activity change, negative = inhibition [4]","activity change, negative = inhibition [5]"
N#Cc1ccc(C2CCCc3cncn32)cc1 (stereo unspecified),1%,-4.38%,-8.44%,-9.23%,4.55%
Cc1ccc(C(=O)N(Cc2ccco2)S(=O)(=O)c2ccc3c(c2)n(C)c(=O)n3C)cc1,-2.1%,3.65%,-17.8%,-4.93%,-2.05%
Cn1cc(C(=O)Cc2ccccc2)cc1/C=C/C(=O)NO,–,10.1%,–,-6.69%,4.31%
CN(CC[C@@H](Oc1ccc(C(F)(F)F)cc1)c1ccccc1)CC(=O)O,-0.461%,10.1%,7.56%,-12.7%,-1.82%
CC(=O)Nc1c2n(c3ccc(F)cc13)CC(C)(C(=O)NC1CCCC1)N(Cc1ccc(C)cc1)C2=O (stereo unspecified),-19.9%,1.97%,-4.86%,-8.03%,-5.34%
CC(C)OCCCNC(=O)C1(C)Cn2c(cc3ccccc32)C(=O)N1Cc1ccc(Cl)cc1 (stereo unspecified),2.21%,5.61%,-1.01%,0.342%,-0.7%
Cn1cnnc1-c1nn(C)c2c1CNCC2,-0.253%,-0.849%,2.2%,-0.378%,-0.634%
CC1(C(=O)NC2CCCCC2)Cn2c(cc3sccc32)C(=O)N1CCCc1ccccc1 (stereo unspecified),-4.04%,3.61%,-1.17%,2.69%,0.656%
Cc1cccc(CN2C(=O)c3cc4ccccc4n3CC2(C)C(=O)NCc2ccccc2)c1 (stereo unspecified),1.89%,0%,0.864%,-1.16%,-3.36%
COCCCN1C(=O)c2cc3occc3n2CC1(C)C(=O)NC1CCCCCCC1 (stereo unspecified),2.38%,4.91%,6.84%,-0.441%,2.13%
CCCn1c(=O)c2ccc(Cl)cc2n2c(=O)n(Cc3cccc(Cl)c3)nc12,-2.64%,0.224%,4.81%,-0.599%,1.2%
Cc1onc(-c2ccccc2Cl)c1C(=O)N[C@@H]1C(=O)N2[C@@H]1SC(C)(C)[C@@H]2C(=O)O,7.08% and 2.69%,5.99% and 5.33%,6.62% and -0.629%,-5.91% and -15.4%,6.47% and -4.85%
Cc1ccc(Cn2c(=O)c3ccccc3n3c(=O)n(CC(=O)c4ccc(C)cc4)nc23)cc1,2.38%,1.09%,5.72%,1.56%,3.27%
O=C(NC1CCCCC1)C1c2cccn2-c2sc3c(c2C(=O)N1c1ccc(Cl)cc1)CCCC3 (stereo unspecified),-4.14%,0%,1.29%,-0.46%,-2.23%
COc1ccccc1Nc1nc(-c2sc(NC(C)=O)nc2C)cs1,–,0.057%,–,-10.8%,-5.97%
COCCNC(=O)[C@@H]1C[C@@H](O)CN1C1CCN(C(=O)Cc2ccccc2)CC1,-1.63%,0.392%,0.035%,-2.45%,-1.94%
O=C(NCCc1ccccc1)c1ccc2c(c1)n(Cc1cccc(F)c1)c(=O)c1ccnn12,-2.97%,4.72%,-0.261%,-6.14%,0.013%
COc1ccc(CC2C(=O)NC(C)C(=O)N(C)C3Cc4ccc(cc4)Oc4cc(ccc4OC4OC(CO)C(O)C(O)C4O)CC(C(=O)NC(C)C(=O)NC(C)C(=O)N2C)N(C)C3=O)cc1 (stereo unspecified),-3.46%,-0.654%,5.04%,-13.8%,-7.21%
COc1ccc(NC(=O)CCc2nnc3n(Cc4ccccc4Cl)c(=O)c4ccccc4n23)cc1OC,-1.94%,-1.77%,-10.3%,-5.41%,-12.3%
